# Assay results from publication PMC4336329 (PLoS ONE, 2015).
# The campaign covered roughly 310,000 compounds. About 2,200 (0.71%) showed an effect of 50% or more. Effects have a minus sign here. The list shows a part of the results.
# Molecular target: human ether-à-go-go-related gene (hERG) potassium channel (human, UniProt Q12809)
# Test: primary screen, population patch clamp on CHO cells stably expressing hERG
# Sequence of human ether-à-go-go-related gene (hERG) potassium channel (Q12809 whole entry, looked up): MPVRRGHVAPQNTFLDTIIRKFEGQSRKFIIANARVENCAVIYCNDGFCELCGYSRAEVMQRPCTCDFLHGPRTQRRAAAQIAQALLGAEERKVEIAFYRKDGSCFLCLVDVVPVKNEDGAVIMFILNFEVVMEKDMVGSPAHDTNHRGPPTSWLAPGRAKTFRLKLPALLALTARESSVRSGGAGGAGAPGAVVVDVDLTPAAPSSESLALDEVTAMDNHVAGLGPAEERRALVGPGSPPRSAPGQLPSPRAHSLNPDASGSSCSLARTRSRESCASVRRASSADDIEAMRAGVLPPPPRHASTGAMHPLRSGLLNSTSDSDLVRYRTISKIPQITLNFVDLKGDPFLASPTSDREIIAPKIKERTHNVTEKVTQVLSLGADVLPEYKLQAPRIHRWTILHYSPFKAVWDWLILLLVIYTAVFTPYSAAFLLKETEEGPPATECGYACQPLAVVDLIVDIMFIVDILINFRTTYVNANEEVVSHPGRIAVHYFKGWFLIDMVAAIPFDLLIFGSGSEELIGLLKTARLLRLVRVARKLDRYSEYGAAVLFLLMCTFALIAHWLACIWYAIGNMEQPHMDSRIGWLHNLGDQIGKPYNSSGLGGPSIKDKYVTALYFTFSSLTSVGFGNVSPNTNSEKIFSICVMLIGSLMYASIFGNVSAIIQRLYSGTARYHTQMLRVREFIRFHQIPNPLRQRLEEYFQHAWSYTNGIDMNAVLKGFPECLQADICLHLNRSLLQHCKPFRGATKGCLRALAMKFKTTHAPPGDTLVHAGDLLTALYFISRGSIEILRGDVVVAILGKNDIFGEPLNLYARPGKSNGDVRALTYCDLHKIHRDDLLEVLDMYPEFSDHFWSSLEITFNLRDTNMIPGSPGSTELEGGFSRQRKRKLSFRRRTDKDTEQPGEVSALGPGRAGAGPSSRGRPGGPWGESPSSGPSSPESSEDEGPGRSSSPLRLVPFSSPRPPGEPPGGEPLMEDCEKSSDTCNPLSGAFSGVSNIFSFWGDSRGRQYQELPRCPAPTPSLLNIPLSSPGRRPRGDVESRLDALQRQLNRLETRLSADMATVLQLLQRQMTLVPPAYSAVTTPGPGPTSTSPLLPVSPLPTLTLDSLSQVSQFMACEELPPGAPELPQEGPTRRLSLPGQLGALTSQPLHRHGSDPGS
row,SMILES,"hERG current change (%, negative = inhibition) at 1uM [%]"
1,O=C(NC(=S)NCc1ccccc1)c1ccccc1[N+](=O)[O-],8.17
2,COC(=O)C1=C(C)N(c2cc(C)cc(C)c2)/C(=C/c2ccco2)C1=O,12.2
3,Cc1ccc(OCC(=O)NC2CC(C)(C)NC(C)(C)C2)c(C)c1,10.1
4,COc1cccc(C(=O)Nc2sc(C(C)C)cc2C(N)=O)c1OC,-29.7
5,Cc1noc(C)c1C(=O)NCc1ccccc1F,8.43
6,C=CCn1c(C(C)NC(=O)c2ccc(C)cc2)n[nH]c1=S (stereo not drawn),7.9
7,COC(=O)Nc1ccc(C)cc1NC(=O)OC,11.3
8,Cc1cc(C)cc(C(N)=Nc2cccc(C#N)c2)c1,-4.53
9,Cc1ccc(C(=O)NNC2=Nc3cccc4cccc2c34)cc1,8.46
10,Cc1cccc(OCCCn2c(CO)nc3ccccc32)c1,9.01
11,CNC.Cc1cccn2c(NCC3CCCO3)c(C(C)C)nc12.Cl (stereo not drawn),-2.88
12,CCc1ccc2[nH]c(=O)c(CN(Cc3ccc4c(c3)OCO4)Cc3nnnn3C3CCCC3)cc2c1,3.78
13,CC(=O)c1cccc(NC(=O)N2CCC(NC(=O)c3ccco3)CC2)c1,-13.1
14,CCOC(=O)c1ccc(S(=O)(=O)n2c(=O)oc3ccccc32)cc1,8.39
15,O=C(OCc1ccc(Cl)cc1)c1cnccn1,6.49
16,COCCNc1nnc(SCC(=O)NNC(=O)c2ccc([N+](=O)[O-])cc2)s1,7.41
17,COc1ccccc1-c1sc2cc3c(cc2c1C#Cc1ccccn1)OCO3,7.13
18,COc1ccc(CC(=O)NCC2CCCN(Cc3ccc(SC)cc3)C2)cc1 (stereo not drawn),-17.1
19,CCCC(=O)Oc1cccc(C2NC(=O)c3ccccc3O2)c1 (stereo not drawn),13.4
20,c1ccc(-c2cc(-c3nc(-c4ccccn4)no3)c3ccccc3n2)cc1,0.957
21,O=C(Cc1cccs1)Nc1nnc(SCc2ccc(C(F)(F)F)cc2)s1,17.4
22,Cc1ccc(CN2C(=O)CCC2C(=O)NCc2ccco2)cc1 (stereo not drawn),-0.469
23,CSCc1cc(N2CCOCC2)nc(-c2ccccc2)n1,7.16
24,Cc1[nH]nc(N)c1-c1ccccc1,12.8

row,SMILES,"hERG current change (%, negative = inhibition) at 1uM [%]"
1,Cn1c(=O)cc(Nc2ccc(Cl)cc2)[nH]c1=O,14.5
2,O=C1CC(c2ccccc2)Sc2ccccc2N1 (stereo not drawn),-8.7
3,O=C(Nc1cccc(-c2nn[nH]n2)c1)c1cccs1,15
4,CCOC(=O)c1cnc2c(cnn2C)c1Oc1ccc(OC)cc1,3.39
5,C=C(c1ccccc1)c1ccccc1N,10.7
6,Cc1cc(C)cc(NC(=O)C2CCN(c3nc(C)cc(C)n3)CC2)c1,1.5
7,CCOC(=O)c1ccccc1NC(=O)CSc1nc(N)cc(=O)[nH]1,12.6
8,Cc1cccnc1NC(=O)CCNC(=O)c1ccc(Cl)cc1,13.3
9,CCCCn1c(CNC(=O)CCC)nc2ccccc21,-6.72
10,COc1ccc(CCn2cc(C#N)c(=O)[nH]c2=O)cc1OC,16.9
11,O=C(CSC1CS(=O)(=O)c2cc([N+](=O)[O-])ccc21)NNC(=O)c1ccc(Cl)cc1 (stereo not drawn),-19
12,Cn1c(SCC(=O)N(C2CCCCC2)C2CCCCC2)nnc1-c1cccs1,3.68
13,Cc1ccc(NC(=O)CSC2=NCCN2)cc1.Cl,18
14,CC1COC2N=C(N[N+](=O)[O-])NC2O1 (stereo not drawn),32.2
15,COc1ccc(NC(=O)CN(C)C(=O)c2c(C)nn(Cc3ccc(C)cc3)c2Cl)cc1,0.744
16,O=S(=O)(c1cccc(-c2nc3ccccc3s2)c1)N1CCOCC1,3.78
17,O=C(NCCn1cccn1)c1ccc(OC2CCN(CCc3ccccc3)CC2)cc1,-1.71
18,CCN(CC(=O)Nc1ccccc1C(F)(F)F)C(=O)C1CSC2(C)CCC(=O)N12 (stereo not drawn),6.27
19,Cc1ccc(/C=N/NC(=O)c2nnn(-c3nonc3N)c2-c2cccs2)cc1,12.2
20,CCN(CC)c1ccc(CNc2nc3ccccc3n2CC)cc1,-12.9
21,CCN(C(=O)CSc1nc(N)cc(=O)[nH]1)C1CCS(=O)(=O)C1 (stereo not drawn),10.2
22,COc1ccccc1N(CC(=O)NC1CCCCC1)C(=O)c1csnn1,12
23,C[n+]1c2n(c3ccccc31)N=C(c1ccc(-c3ccccc3)cc1)CS2.[Br-],-39
24,CCOC(=O)/C(=C/c1c(C)n(C)c2ccc([N+](=O)[O-])cc12)C(C)=O,-5.86

row,SMILES,"hERG current change (%, negative = inhibition) at 1uM [%]"
1,CC1(C)CCC(=O)N(c2ccccc2)C1=O,10.3
2,O=C(Nc1ccc(N2C(=O)CCC2=O)cc1Cl)c1cccs1,11.7
3,O=c1c2ccccc2nc(-c2cccs2)n1-c1ccc2ccccc2c1,2.66
4,COc1ccc(CNC(=O)COC(=O)c2cc(-c3ccc(Cl)s3)nc3ccccc23)cc1,7.75
5,Cc1cc(C(=O)COc2ccccc2C(N)=O)c(C)n1C,3.43
6,CC1CCN(C(=O)c2cc3c(ccc4ccccc43)o2)CC1,-8.23
7,Cc1ccc(Cl)cc1N(CC(=O)NC1CCCC1)C(=O)c1csnn1,20.9
8,Cc1cc(C)c(S(=O)(=O)c2ccccc2C)c(Cl)n1,8.79
9,O=C(Cc1ccccc1)NCc1ccncc1,7.72
10,CCOC(=O)c1c(NC(=O)C2(C)Cc3ccccc3C(=O)O2)sc2c1CCCC2 (stereo not drawn),17.5
11,O=C(OCC(=O)N1CCCCCC1)c1cccc(Cl)c1,6.2
12,CC(CCc1ccccc1)NC(=O)c1cccnc1 (stereo not drawn),20.2
13,CCn1c(=O)cc(SCC(=O)NCc2ccc(C)o2)c2ccccc21,6.24
14,Cn1cc(CNCc2cnc3ccccn23)c(-c2ccc(Oc3ccccc3)cc2)n1,2.02
15,C=C(C)CSc1nnc(-c2ccc(OC)cc2)n1N,-2.01
16,CCC(C)NC(=O)c1ccc2c(c1)S(=O)(=O)c1ccccc1C2=O (stereo not drawn),23
17,O=C(NCC(c1ccco1)N1CCN(c2ccc(F)cc2)CC1)C1CCCCC1 (stereo not drawn),-1.53
18,CCOC(=O)c1ccc(NC(=O)CCn2c(=O)oc3ccccc32)cc1,11.2
19,Cc1cc(N2C(=O)C(O)=C(C(=O)c3ccco3)C2c2cccc(Cl)c2)no1 (stereo not drawn),10.8
20,COc1cccc(CNC(=O)CCCNS(=O)(=O)c2cccs2)c1,16.4
21,Cc1c(NC(=O)CN2CCN(C(=O)c3ccco3)CC2)c(=O)n(-c2ccccc2)n1C,-4.71
22,Cn1c(=O)c(C#N)c(-c2ccccc2)n2cnnc12,2.79
23,CCOC(=O)C1=C(O)C(=O)N(c2ccc(S(N)(=O)=O)cc2)C1c1ccc(OC)cc1OC (stereo not drawn),5.69
24,CN(CC(=O)Nc1ccccc1Cl)C(=O)COC(=O)c1cc(S(=O)(=O)N(C)C)ccc1N1CCCC1,16.6

row,SMILES,"hERG current change (%, negative = inhibition) at 1uM [%]"
1,COc1cccc(CN(C)CC2CCCN(CCc3ccccc3C)C2)c1 (stereo not drawn),-32.6
2,NC(=O)CC[C@@H]1NC(=O)[C@@H]2CCCN2C(=O)c2cc([N+](=O)[O-])cc(I)c2NCCC[C@@H](C(=O)NC(CC(=O)O)C(N)=O)NC1=O (stereo partly drawn),-7.47
3,CC(=O)c1ccc(Nc2cc(C)nc3ncnn23)cc1,7.99
4,O=C(/C=C/c1ccccc1)NC(=S)Nc1ncccn1,14.1
5,O=C(/C=C/c1cccc(Cl)c1)Nn1c(-c2cccs2)nc2ccccc2c1=O,11.5
6,COc1ccccc1CC(=O)N(Cc1ccccc1)c1ccc(C)cc1,-2.47
7,CCc1sc(C(=O)NCc2ccco2)cc1C,14
8,CCOC(=O)Cc1nnc(NC(=O)CSc2ccccc2)s1,10.8
9,O=C(O)/C=C/c1ccc2c(c1)OCCO2,6.97
10,O=c1oc2ccccc2cc1-c1nnc(-c2cccc(Br)c2)o1,-4.04
11,CCSc1nc(-c2ccc(OC)cc2)cc(-c2ccccc2)c1C#N,2.51
12,Cn1c(CNc2ccccc2)nc2ccccc21,14.2
13,Cc1cccc(NC(=O)Nc2ccc(Br)cc2)n1,12.3
14,O=C1c2ccccc2C(Nc2cccnc2)N1Cc1ccccc1 (stereo not drawn),-11.9
15,c1ccc(C2=Nc3ccccc3OC2)cc1,6.1
16,Cc1nnc(NC(=O)CSc2nnc3ncccn23)s1,18.6
17,CC1CCN(c2nnc(N3CCC(C)CC3)c3ccccc23)CC1,10.5
18,CSc1nc(N)c(C(=O)NC2CCCCC2)s1,14.2
19,CC(=O)NCC(=O)NC1CCCc2c1cnn2-c1ccc(C(C)(C)C)cc1 (stereo not drawn),5.63
20,O=C(Cn1c(C(F)(F)F)nc2ccccc21)NCCCN1CCOCC1,13.5
21,COc1ccc([C@@H]2[C@@H]3C(=O)N(C(C)(C)C)C(=O)[C@@H]3[C@]3(Cc4ccc(Cl)cc4)C(=O)N(c4ccc(OC)cc4)C(=O)N23)cc1,-0.411
